Whole data set: some 16,000 sequences, median “Z-score” near -0.37, cut for the highest 2% near 3.1. The list shows a part of the results.
What follows are sequences tested on RBM10 RRM1-ZnF-RRM2 (GST-tagged construct) (assay: RNAcompete 7-mer binding Z-score; higher = stronger binding preference).
Procedure: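 RNAcompete: 20 pmol GST-tagged RBM10 RNA-binding constructs were incubated with a designed RNA pool of about 241,000 sequences up to 41 nt (1.5 nmol) on glutathione beads for 30 min at 4 °C and washed. Bound RNAs were identified by microarray hybridisation. Each RNA 7-mer is scored by a one-sided Z-score of its enrichment, computed over probes that contain the 7-mer within longer pool sequences.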

Sequence	RNAcompete 7-mer binding Z-score
CGCAAAA	-0.391
CAUAAUC	-0.715
CCAGGCC	-0.679
GGGGUUA	3.07
CGUGUCC	-0.704
UAGGGUC	2.16
CUGUGGA	0.701
UCGGGAA	1.4
CCGCAAC	-0.617
UCGCUAA	-0.573
CAUGGGG	2.51
UCCCGGA	-0.38
GAAAUCC	-0.61
GAAUUCU	-0.493
GGGUACG	2.9
ACCAGAG	0.355
GGACCCU	-0.46
CCCGAUC	-0.73
AGGAUCC	-0.238
UAGCAGA	0.348
ACGGGAA	2.76
AACAGGA	2.03
CGCCUAA	-0.908
GCGGCGU	1.18

Sequence	RNAcompete 7-mer binding Z-score
ACCCGUU	-0.916
CUCCCUA	-0.701
UAGCUUA	-0.526
UAUUGGA	0.523
CCGUGAA	-0.635
CGGUAAC	0.232
AACAAUA	0.13
GUCAAUU	-0.602
CGGGGUC	1.9
AUGGGCC	1.33
AGCAUUU	-0.726
GUUCACA	-0.519
CGCACCC	-0.748
UCACCUG	-0.755
GGGCGGG	3.52
ACACUAG	-0.169
GGUGAGA	2.68
UUCCUUU	-0.781
UCAUCGG	-0.103
CGUACCC	-0.551
UCCGUGU	-0.588
UUGCUAG	-0.333
GAACUUU	-0.632
CCAUCAU	-0.817

Sequence	RNAcompete 7-mer binding Z-score
GCGAAUC	-0.26
AAUGUAC	0.0313
UACGACU	-0.657
GUUCGGG	1.51
GAGCCCC	-0.581
UUACAAU	-0.409
UGUCCAU	-0.675
CACGUUA	-0.406
CGAGUUU	-0.562
CAAAACC	-0.533
AUUGCAA	-0.318
CAGGCUU	-0.497
UUAGAGA	0.319
GAUCUGG	0.246
GCGCGUC	-0.238
AGGUACU	0.0823
UUGCAAA	-0.428
AAGCUCA	-0.635
GCAAGAC	-0.129
UGCUCUG	-0.901
UGCCGCC	-0.694
UCCGCUC	-0.599
AUUUGUC	-0.744
AGGAAGA	1.64

Sequence	RNAcompete 7-mer binding Z-score
CUAAUCA	-0.592
UUGCCGA	-0.672
CGGGGGA	2.53
UAAAAGG	1.38
AUCGCAU	-0.522
CUGUAUC	-0.697
UAUUGCU	-0.777
UCAGGCA	0.636
CCUGAUC	-0.927
GCCCAUG	-0.639
CUUCUGC	-0.959
AUACUUA	-0.551
UCACAAG	-0.256
UUACACA	-0.544
UAGAUAU	-0.154
UUAUACG	-0.53
UUAUCGG	-0.0889
CCUCCUU	-0.916
GUUUCUU	-0.551
ACAAUAA	-0.114
AAAGGAG	3.75
AGCGUGG	2.39
GGAUUUC	-0.0161
AGGAGUC	0.836

Sequence	RNAcompete 7-mer binding Z-score
AGCGCUG	-0.0889
ACAGUCC	-0.741
UUUAUCA	-0.821
CUCAGGC	-0.424
CAACCGC	-0.741
UUUAGUU	-0.497
GAAUGUC	-0.395
UCCAGUU	-0.577
ACGAUUU	-0.661
UUAGAUA	-0.377
UGACGGA	1.01
AUUUUGU	-0.657
GGGUUUC	1.59
CAACCGG	-0.176
GUUUCCC	-0.592
UUCGCGA	-0.65
UUCCCGG	-0.613
CGGAUAA	0.862
AUCCGCA	-0.799
CGUGUAA	0.0058
AGGCGAA	1.21
UAAACGU	-0.439
UUGUCUG	-0.737
GGACGUG	1.98

Sequence	RNAcompete 7-mer binding Z-score
CUCGUGG	0.0495
GUGUAGC	0.359
AGUACUG	0.00216
CUGUAAC	-0.704
UUAACCG	-0.65
UUGGAAC	0.603
GCAUCUA	-0.606
GGAUACC	0.574
AAUCAUG	-0.0525
GAACAAU	0.319
AAAACCA	-0.307
UAUAGGA	1.12
UUAAUCG	-0.577
GAGUGCA	0.676
GGAGCGC	1.24
AAACGUG	0.428
CUAACGA	-0.566
UAAGUCG	-0.242
AUUAAGU	-0.107
UACGACC	-0.752
AGGAGUU	1.52
GUACAGG	2.73
GGCAUCU	-0.333
AAGUCUG	-0.522

Sequence	RNAcompete 7-mer binding Z-score
GUAACCG	0.199
GGCACCG	0.246
GAGCGGC	1.42
GAGUCUC	-0.267
UAGCGCA	-0.446
GCUCACC	-0.785
CUAGUGC	-0.486
CGGCCGG	-0.114
AUUGAGC	-0.078
AGCCUUG	-0.89
AAGCCGG	0.0349
AGAUGGA	2.92
UUCCCAU	-0.792
GUCAUUC	-0.635
UAGCGUG	0.173
GAUCGUA	-0.227
CAAUUGC	-0.566
CCUCGCA	-0.694
UACUCAU	-0.766
AAUCGCU	-0.825
GUUUAGC	-0.409
UCGGGCA	0.752
GCACCGC	-0.238
UUUACUG	-0.69

Sequence	RNAcompete 7-mer binding Z-score
UGUUUCG	-0.311
UAGAUAA	0.0459
GAGCCGC	-0.457
GCAACCC	-0.635
CUGCAAG	-0.493
GUCGUCA	0.0532
GUAGGCU	0.629
CCUCGAA	-0.73
GGUAAAA	1.66
GCCGGUA	-0.0925
GUUCCCC	-0.388
CGCUUGC	-0.81
UAAUAAC	-0.504
CUCACGA	-0.617
AGUCUCG	-0.402
UCAGUAU	-0.293
CCCAGAA	-0.646
UAGUAGG	1.93
UAGUAUA	-0.205
CCUCGUG	-0.755
UUCCGAA	-0.606
AACGCAU	-0.395
CGAGCUC	-0.526
CUGUUCG	-0.672

Sequence	RNAcompete 7-mer binding Z-score
UUUGCGC	-0.865
GGGACGA	2.42
AAGCUAA	-0.26
AGGUCCA	-0.184
UCGGCUG	-0.289
CAAUCUG	-0.628
GGGCUCC	0.264
CAGUCUC	-0.755
UUCGAGC	-0.57
GCAGGAU	1.22
CUGCAGU	-0.34
GAGUGAU	0.731
ACGACCA	-0.362
AUCAAGG	1.07
UGCCGCU	-0.715
ACGACAC	-0.428
AGAGGGG	1.94
UCUGCCA	-0.945
GUUGCAU	-0.227
UAACAAG	0.148
AAAUGCC	-0.544
UGUGAUA	-0.162
CCGAAGG	0.166
UCAUGAU	-0.231

Sequence	RNAcompete 7-mer binding Z-score
GUGUGGG	3.75
AACCGAC	-0.668
GACAAUG	1.23
GCUGUUC	-0.766
CUCAGCC	-0.846
GCGCACG	0.148
GCACAUA	-0.355
CAUGAAU	-0.369
UCGCAGA	-0.369
UCCACGA	-0.799
UUCACGA	-0.53
UCAGCCG	-0.861
CACUGUA	-0.373
CGAGGCG	1.5
GCUCGAA	-0.479
UAAUACG	-0.26
CCAUAUG	-0.541
UGUUAUC	-0.486
